No constants are given. Whether binding was seen depends on the method and setting. Binding seen in cells or lysates may run through a third protein. Some entries that bind do so weakly or less than the wild type. Tags and fused reporters may be left off the sequences shown.
T1: Tap-tagged Mtr4 (yeast) (UniProt P47047)
T1 sequence: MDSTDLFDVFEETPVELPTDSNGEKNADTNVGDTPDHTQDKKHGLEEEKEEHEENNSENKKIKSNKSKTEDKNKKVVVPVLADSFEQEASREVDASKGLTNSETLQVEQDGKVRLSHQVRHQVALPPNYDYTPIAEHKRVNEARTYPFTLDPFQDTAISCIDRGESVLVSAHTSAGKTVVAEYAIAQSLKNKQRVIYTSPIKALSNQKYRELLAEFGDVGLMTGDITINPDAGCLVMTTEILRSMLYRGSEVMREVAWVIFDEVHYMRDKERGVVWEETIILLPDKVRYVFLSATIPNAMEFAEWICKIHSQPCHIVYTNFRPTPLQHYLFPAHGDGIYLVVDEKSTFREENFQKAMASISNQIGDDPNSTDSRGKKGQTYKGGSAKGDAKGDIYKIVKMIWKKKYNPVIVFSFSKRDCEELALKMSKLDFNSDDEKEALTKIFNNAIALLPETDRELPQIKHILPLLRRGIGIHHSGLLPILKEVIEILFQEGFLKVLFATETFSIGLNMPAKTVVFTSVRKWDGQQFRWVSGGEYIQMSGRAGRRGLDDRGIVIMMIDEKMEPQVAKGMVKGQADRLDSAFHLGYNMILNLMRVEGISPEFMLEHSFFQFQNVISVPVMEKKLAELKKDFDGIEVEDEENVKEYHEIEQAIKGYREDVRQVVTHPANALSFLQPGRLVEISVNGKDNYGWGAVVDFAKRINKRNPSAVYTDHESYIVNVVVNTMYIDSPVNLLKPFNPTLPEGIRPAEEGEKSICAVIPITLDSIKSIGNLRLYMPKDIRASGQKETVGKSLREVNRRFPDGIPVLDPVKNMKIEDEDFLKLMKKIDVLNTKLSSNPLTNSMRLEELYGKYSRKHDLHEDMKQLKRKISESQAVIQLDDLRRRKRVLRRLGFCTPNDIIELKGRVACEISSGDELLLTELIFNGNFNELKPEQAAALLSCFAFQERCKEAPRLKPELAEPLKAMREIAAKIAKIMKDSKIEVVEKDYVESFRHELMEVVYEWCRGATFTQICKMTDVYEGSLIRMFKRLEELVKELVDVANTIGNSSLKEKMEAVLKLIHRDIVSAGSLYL

T2: Tap-tagged Rrp41 (yeast) (UniProt P46948)
T2 sequence: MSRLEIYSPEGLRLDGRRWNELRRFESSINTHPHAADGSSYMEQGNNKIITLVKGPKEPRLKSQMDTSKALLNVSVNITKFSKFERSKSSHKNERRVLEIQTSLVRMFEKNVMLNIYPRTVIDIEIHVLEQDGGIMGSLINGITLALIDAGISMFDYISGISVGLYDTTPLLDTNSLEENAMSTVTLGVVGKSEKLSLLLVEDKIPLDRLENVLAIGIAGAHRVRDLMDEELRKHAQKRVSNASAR

T3: Tap-tagged Rrp6 (yeast) (UniProt Q12149)
T3 sequence: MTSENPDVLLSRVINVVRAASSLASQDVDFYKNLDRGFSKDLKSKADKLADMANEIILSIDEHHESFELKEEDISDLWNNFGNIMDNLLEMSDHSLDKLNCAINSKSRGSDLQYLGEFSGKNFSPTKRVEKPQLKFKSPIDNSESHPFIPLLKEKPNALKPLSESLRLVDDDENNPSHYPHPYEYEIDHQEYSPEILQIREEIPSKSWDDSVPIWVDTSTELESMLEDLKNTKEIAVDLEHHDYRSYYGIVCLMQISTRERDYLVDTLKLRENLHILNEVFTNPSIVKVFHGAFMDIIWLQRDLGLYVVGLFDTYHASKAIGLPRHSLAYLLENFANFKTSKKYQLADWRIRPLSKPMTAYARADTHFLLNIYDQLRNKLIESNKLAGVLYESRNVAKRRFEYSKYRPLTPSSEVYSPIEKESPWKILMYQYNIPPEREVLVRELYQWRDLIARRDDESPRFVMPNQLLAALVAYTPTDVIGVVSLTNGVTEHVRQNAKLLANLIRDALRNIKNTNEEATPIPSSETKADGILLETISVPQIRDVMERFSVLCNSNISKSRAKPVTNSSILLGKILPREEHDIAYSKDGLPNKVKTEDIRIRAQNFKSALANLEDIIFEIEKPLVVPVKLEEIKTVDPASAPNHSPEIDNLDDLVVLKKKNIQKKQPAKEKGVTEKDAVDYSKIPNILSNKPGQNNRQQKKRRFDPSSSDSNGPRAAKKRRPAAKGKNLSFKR


Key:
[1] = target: T1, Tap-tagged Mtr4 (yeast); test: co-IP; Tap-tagged Mtr4 or Tap-tagged Air1, polyclonal antibodies against the Ccr4-Not complex subunits; data not shown
[2] = target: T2, Tap-tagged Rrp41 (yeast); test: co-IP; tandem affinity purification of Tap-tagged Rrp41 from 2 g of wild-type total extract treated with RNAse A (for Rrp4 and Rrp43: treated or not); eluate blotted with antibodies against CBP, Rrp4, Rrp43 and Not5
[3] = target: T3, Tap-tagged Rrp6 (yeast); test: co-IP; single affinity step: extracts (60 mg or 2 g) of wild-type and ccr4-not mutant strains (other than caf40Δ) expressing Tap-tagged Rrp6 incubated with IgG beads, eluted by TEV cleavage; western blot with antibodies against CBP, Mtr4, Rrp43, Rrp4

Row | Binder | binding [1] | binding [2] | binding [3]
1 | Ccr4 (protein, UniProt P31384 1-837) MNDPSLLGYPNVGPQQQQQQQQQQHAGLLGKGTPNALQQQLHMNQLTGIPPPGLMNNSDVHTSSNNNSRQLLDQLANGNANMLNMNMDNNNNNNNNNNNNNNNGGGSGVMMNASTAAVNSIGMVPTVGTPVNINVNASNPLLHPHLDDPSLLNNPIWKLQLHLAAVSAQSLGQPNIYARQNAMKKYLATQQAQQAQQQAQQQAQQQVPGPFGPGPQAAPPALQPTDFQQSHIAEASKSLVDCTKQALMEMADTLTDSKTAKKQQPTGDSTPSGTATNSAVSTPLTPKIELFANGKDEANQALLQHKKLSQYSIDEDDDIENRMVMPKDSKYDDQLWHALDLSNLQIFNISANIFKYDFLTRLYLNGNSLTELPAEIKNLSNLRVLDLSHNRLTSLPAELGSCFQLKYFYFFDNMVTTLPWEFGNLCNLQFLGVEGNPLEKQFLKILTEKSVTGLIFYLRDNRPEIPLPHERRFIEINTDGEPQREYDSLQQSTEHLATDLAKRTFTVLSYNTLCQHYATPKMYRYTPSWALSWDYRRNKLKEQILSYDSDLLCLQEVESKTFEEYWVPLLDKHGYTGIFHAKARAKTMHSKDSKKVDGCCIFFKRDQFKLITKDAMDFSGAWMKHKKFQRTEDYLNRAMNKDNVALFLKLQHIPSGDTIWAVTTHLHWDPKFNDVKTFQVGVLLDHLETLLKEETSHNFRQDIKKFPVLICGDFNSYINSAVYELINTGRVQIHQEGNGRDFGYMSEKNFSHNLALKSSYNCIGELPFTNFTPSFTDVIDYIWFSTHALRVRGLLGEVDPEYVSKFIGFPNDKFPSDHIPLLARFEFMKTNTGSKKV | binds | – | –
2 | Caf1 (protein, UniProt P39008 1-433) MQSMNVQPRVLAVGGEQFFSQRQASEQHQQQNMGPQVYSPKVNRARMFPQGMPVNTINGSVNQEMNNAYLLKQKNEPLLTQQQQQQQQQQQPFNIGTPVSVASLPPGLNVLQQQQQQQQQQQQQQQGVGLNRPLASQLPKHLTNQSMPPIFLPPPNYLFVRDVWKSNLYSEFAVIRQLVSQYNHVSISTEFVGTLARPIGTFRSKVDYHYQTMRANVDFLNPIQLGLSLSDANGNKPDNGPSTWQFNFEFDPKKEIMSTESLELLRKSGINFEKHENLGIDVFEFSQLLMDSGLMMDDSVTWITYHAAYDLGFLINILMNDSMPNNKEDFEWWVHQYMPNFYDLNLVYKIIQEFKNPQLQQSSQQQQQQQYSLTTLADELGLPRFSIFTTTGGQSLLMLLSFCQLSKLSMHKFPNGTDFAKYQGVIYGIDGDQ | binds | – | –

The remaining lines, values ahead:

Row | binding [1] | binding [2] | binding [3] | Binder
3 | – | binds | binds | Rrp4 (protein, UniProt P38792 1-359) MSEVITITKRNGAFQNSSNLSYNNTGISDDENDEEDIYMHDVNSASKSESDSQIVTPGELVTDDPIWMRGHGTYFLDNMTYSSVAGTVSRVNRLLSVIPLKGRYAPETGDHVVGRIAEVGNKRWKVDIGGKQHAVLMLGSVNLPGGILRRKSESDELQMRSFLKEGDLLNAEVQSLFQDGSASLHTRSLKYGKLRNGMFCQVPSSLIVRAKNHTHNLPGNITVVLGVNGYIWLRKTSQMDLARDTPSANNSSSIKSTGPTGAVSLNPSITRLEEESSWQIYSDENDPSISNNIRQAICRYANVIKALAFCEIGITQQRIVSAYEASMVYSNVGELIEKNVMESIGSDILTAEKMRGNGN
4 | – | binds | binds | Rrp43 (protein, UniProt P25359 1-394) MAESTTLETIEIHPITFPPEVLARISPELSLQRHLSLGIRPCLRKYEEFRDVAIENNTLSRYADAGNIDTKNNILGSNVLKSGKTIVITSITGGIIEETSAAIKDLDDFGEEELFEVTKEEDIIANYASVYPVVEVERGRVGACTDEEMTISQKLHDSILHSRILPKKALKVKAGVRSANEDGTFSVLYPDELEDDTLNETNLKMKRKWSYVLYAKIVVLSRTGPVFDLCWNSLMYALQSVKLPRAFIDERASDLRMTIRTRGRSATIRETYEIICDQTKSVPLMINAKNIAFASNYGIVELDPECQLQNSDNSEEEEVDIDMDKLNTVLIADLDTEAEETSIHSTISILAAPSGNYKQLTLVGGGAKITPEMIKRSLLLSRVRADDLSTRFNI
